Test results reported in publication PMC4336329 (PLoS ONE, 2015).
Screen size: about 310,000 compounds; about 2,200 (0.71%) showed an effect of 50% or more. Effects have a minus sign here. Some of the results follow.

molecular target: human ether-à-go-go-related gene (hERG) potassium channel (human, UniProt Q12809); assay: primary screen, population patch clamp on CHO cells stably expressing hERG
Sequence (Q12809 whole entry, looked up): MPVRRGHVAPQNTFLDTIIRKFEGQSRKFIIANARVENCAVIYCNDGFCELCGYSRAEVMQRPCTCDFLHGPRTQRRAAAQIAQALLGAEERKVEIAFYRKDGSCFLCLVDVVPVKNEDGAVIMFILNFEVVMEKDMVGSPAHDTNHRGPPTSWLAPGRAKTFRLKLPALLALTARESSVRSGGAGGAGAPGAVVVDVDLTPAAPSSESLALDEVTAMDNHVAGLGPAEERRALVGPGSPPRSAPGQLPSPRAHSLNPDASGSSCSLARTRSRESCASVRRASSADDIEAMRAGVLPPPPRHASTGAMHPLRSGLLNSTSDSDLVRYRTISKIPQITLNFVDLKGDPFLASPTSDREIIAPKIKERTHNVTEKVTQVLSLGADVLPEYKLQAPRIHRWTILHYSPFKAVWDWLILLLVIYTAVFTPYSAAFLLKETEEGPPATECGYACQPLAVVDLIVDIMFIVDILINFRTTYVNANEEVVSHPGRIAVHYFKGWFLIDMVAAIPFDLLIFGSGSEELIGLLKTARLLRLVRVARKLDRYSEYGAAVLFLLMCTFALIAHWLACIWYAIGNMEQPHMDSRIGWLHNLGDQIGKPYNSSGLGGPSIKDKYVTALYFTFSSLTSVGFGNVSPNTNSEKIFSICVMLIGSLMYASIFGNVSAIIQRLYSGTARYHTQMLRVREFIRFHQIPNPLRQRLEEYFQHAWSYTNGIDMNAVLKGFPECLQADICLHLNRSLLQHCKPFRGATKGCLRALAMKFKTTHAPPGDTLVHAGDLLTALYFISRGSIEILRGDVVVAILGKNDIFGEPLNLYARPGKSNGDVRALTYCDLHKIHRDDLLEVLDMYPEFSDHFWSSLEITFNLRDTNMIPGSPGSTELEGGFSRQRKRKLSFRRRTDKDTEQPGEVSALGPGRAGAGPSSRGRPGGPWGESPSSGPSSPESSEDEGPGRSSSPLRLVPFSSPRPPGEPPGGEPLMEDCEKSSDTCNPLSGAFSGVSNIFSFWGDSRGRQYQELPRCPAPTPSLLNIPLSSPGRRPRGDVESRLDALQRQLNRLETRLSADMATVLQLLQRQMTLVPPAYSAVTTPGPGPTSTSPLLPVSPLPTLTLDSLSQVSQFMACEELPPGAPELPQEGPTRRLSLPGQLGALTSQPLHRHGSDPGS

Compound	hERG current change (%, negative = inhibition) at 1uM [%]
Cl.O=C(CSC1=NCCN1)Nc1cccc([N+](=O)[O-])c1	7.96
CCOc1cc(C(=S)N2CCCC2)ccc1OCC(=O)Nc1c(C)cc(C)cc1C	8.39
COc1ccc(N2CCN(CC(=O)c3c(C)n(C)c4ccc(OC)cc34)CC2)cc1	8.16
O=C1NC2(CCCC2)N=C1c1ccc(Cl)cc1	5.1
COc1ccccc1-n1c(C)nnc1SCC(N)=O	9.63
O=C(NC1CCSC1)c1cccc(Cl)c1 (stereo not shown)	14.3
C=CCNc1nc(NCC)nc(N2CCOCC2)n1	3.16
O=C(CN(Cc1ccc(F)cc1)C(=O)CNS(=O)(=O)c1ccc(F)cc1)NCC1CCCO1 (stereo not shown)	10.3
Oc1[nH]c2ccccc2c1N=NC(=S)NCC1CCCO1 (stereo not shown)	10.9
COc1cc(OC)cc(C(=O)N2CCC(C(=O)Nc3ccc4c(c3)OCCO4)CC2)c1	12.5
Cc1nc2c(-c3ccc(Cl)cc3)cnn2c2c1CCC2	-4.35
COc1ccc2nccnc2c1[N+](=O)[O-]	17.3
CCC(=O)NC(=S)Nc1cc(C(=O)O)ccc1OC	12.2
CCCNC(=O)COC(=O)c1n[nH]c2ccccc12	12.2
COc1ccc(N2CCN(C(=O)c3c(Cl)cnn3C)CC2)cc1	8.33
CC(C)C[C@@H](C(=O)NC1CC1)N1C(=O)N2CCc3c([nH]c4ccccc34)[C@@]2(C)C1=O	-3.26
CCOC(=O)N1CCC(N2Cc3cccc(C(=O)NC(C)c4ccc5c(c4)OCCO5)c3C2=O)CC1 (stereo not shown)	-18.9
CC1C/C(=N\NC(=S)NC(C)C)CC(C)(C)C1 (stereo not shown)	10.8
Cc1c(NC(=O)CN2C(=O)NC3(CCCCC3)C2=O)c(=O)n(-c2ccccc2)n1C	-0.29
Cc1nc(C(C)NC(=O)c2cc(COc3ccc(C)c(C)c3)on2)c(C)s1 (stereo not shown)	19.2
CCN1CCN(CC(=O)N2N=C(c3cccs3)CC2c2ccc(OC)cc2)C(=O)C1=O (stereo not shown)	0.514
O=C(CSc1nc(O)c(Cc2ccccc2)c(=O)[nH]1)c1ccccc1	13.1
COc1ccc(NS(=O)(=O)c2cccs2)cc1S(=O)(=O)N1CCOCC1	14.7
Cc1ccc(-c2nnc(N(C)C(=O)C3CCCO3)s2)cn1 (stereo not shown)	10.5
COc1cccc(-n2nc(C(=O)N3CC(C)CC(C)C3)c3ccccc3c2=O)c1 (stereo not shown)	14.5
